Publication PMC4336329 (PLoS ONE, 2015)
Screen size: about 310,000 compounds; about 14,000 (4.5%) showed an effect of 50% or more. Effects have a minus sign here. The list shows a part of the results.

Target: human ether-à-go-go-related gene (hERG) potassium channel (human, UniProt Q12809)
Experiment: primary screen, population patch clamp on CHO cells stably expressing hERG
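Further: peak tail current of the secondary pulse compared with the same well before compound.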

Chain of human ether-à-go-go-related gene (hERG) potassium channel (Q12809 whole entry, looked up): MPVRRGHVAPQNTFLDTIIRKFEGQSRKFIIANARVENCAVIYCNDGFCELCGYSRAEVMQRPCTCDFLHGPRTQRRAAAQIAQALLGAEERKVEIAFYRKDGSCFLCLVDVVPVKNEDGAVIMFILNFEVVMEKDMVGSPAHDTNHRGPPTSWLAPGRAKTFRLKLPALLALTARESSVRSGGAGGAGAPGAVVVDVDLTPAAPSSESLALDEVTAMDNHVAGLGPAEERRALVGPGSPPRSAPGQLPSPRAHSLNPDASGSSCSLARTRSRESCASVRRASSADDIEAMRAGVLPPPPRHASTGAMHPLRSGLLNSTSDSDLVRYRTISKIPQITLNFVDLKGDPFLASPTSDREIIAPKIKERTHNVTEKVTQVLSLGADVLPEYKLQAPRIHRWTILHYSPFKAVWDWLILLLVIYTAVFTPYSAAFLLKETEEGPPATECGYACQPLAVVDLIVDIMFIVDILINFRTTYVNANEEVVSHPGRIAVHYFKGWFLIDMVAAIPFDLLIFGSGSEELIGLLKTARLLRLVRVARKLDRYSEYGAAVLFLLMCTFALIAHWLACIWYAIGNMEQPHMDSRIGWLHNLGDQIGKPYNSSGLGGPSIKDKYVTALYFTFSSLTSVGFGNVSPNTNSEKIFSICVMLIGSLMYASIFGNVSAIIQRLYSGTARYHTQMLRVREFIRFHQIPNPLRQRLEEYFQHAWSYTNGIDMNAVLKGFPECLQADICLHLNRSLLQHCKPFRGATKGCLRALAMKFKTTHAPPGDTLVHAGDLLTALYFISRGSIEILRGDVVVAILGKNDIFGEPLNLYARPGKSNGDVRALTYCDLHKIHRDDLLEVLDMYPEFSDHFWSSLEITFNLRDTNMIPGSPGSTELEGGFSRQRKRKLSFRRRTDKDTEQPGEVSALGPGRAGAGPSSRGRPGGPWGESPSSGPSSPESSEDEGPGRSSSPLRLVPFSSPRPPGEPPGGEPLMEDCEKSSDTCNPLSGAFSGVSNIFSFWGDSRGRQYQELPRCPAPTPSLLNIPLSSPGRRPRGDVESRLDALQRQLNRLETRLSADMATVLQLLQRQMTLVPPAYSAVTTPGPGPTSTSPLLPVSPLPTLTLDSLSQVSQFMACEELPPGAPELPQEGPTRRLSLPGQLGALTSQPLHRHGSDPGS

Compound | hERG current change (%, negative = inhibition) at 10uM
O=C1CC(C(=O)O)c2ccccc2N1 (stereo not drawn) | -4.12%
CN(C)S(=O)(=O)c1ccc(C(=O)NCc2cccs2)cc1 | 5.55%
COP(=O)(OC)C(Nc1ccc([N+](=O)[O-])cc1)c1ccccc1 (stereo not drawn) | -36.1%
Cc1c(CCOC(=O)C23CC4CC(CC(C4)C2)C3)sc[n+]1Cc1ccccc1.[Cl-] | -8.89%
O=C(CN1CCN(c2ccccc2)CC1)NCc1ccc(F)cc1 | -11%
CCOC(=O)C1C(=O)CC(C)(O)C(C(=O)OCC)C1c1ccc(SC)cc1 (stereo not drawn) | 0.306%
CC(Sc1nc2ccccc2s1)C(=O)Nc1nnc(C(C)C)s1 (stereo not drawn) | -21.5%
CCOc1ccc(S(=O)(=O)N(C)c2ccc(OCC(=O)Nc3nc4ccccc4s3)cc2)cc1 | 13.9%
Cc1coc2c(C)c3oc(=O)c(CC(=O)N[C@@H](CC(C)C)C(=O)O)c(C)c3cc12 | 8.8%
O=C(NCCCN1CCCC1=O)Nc1ccc([N+](=O)[O-])cc1 | -2%
Cl.c1ccc(-c2ccc(CNC3CC3)cc2)cc1 | 15.2%
Cc1ccc(S(=O)(=O)N2CCCC2C(=O)NC2CCCCC2)cc1 (stereo not drawn) | 12.2%
CCNc1nc(NC(C)C)nc(OCCOC(=O)c2ccccc2)n1 | -30.7%
N#Cc1c(-c2ccccc2F)cc(-c2cccnc2)nc1N | -5.89%
O=C(Nc1nncs1)c1cc(S(=O)(=O)N2CCOCC2)ccc1Cl | 17.8%
COc1ccc(S(=O)(=O)N2CCN(CC(=O)Nc3ccccc3OC)CC2)cc1 | -5.56%
C/C=C/COC(=O)c1[nH]c2c(c1C)C(=O)CC(c1ccco1)C2 (stereo not drawn) | 0.369%
COc1ccc(CNC(=O)COC(=O)c2cccs2)cc1 | 8.95%
Cc1cc(C)n(CCNC(=O)CC2C(=O)NCCN2Cc2ccccc2C(F)(F)F)n1 (stereo not drawn) | 8.81%
Cc1c(C(=O)N2CCCC2)oc2c1-c1nn(CC(=O)NCCCN3CCCCC3)cc1CC2 | 9.72%

Compound | hERG current change (%, negative = inhibition) at 10uM
COc1ccc(C(=O)Nc2ccc(C(=O)OCC(=O)c3cccc4ccccc34)cc2)cc1 | 9.99%
Cc1ccc2[nH]c(=O)c(-c3nc4c(C)cccn4c3NCc3ccco3)cc2c1 | 12.5%
N#CCSc1nnc(C2CCCCC2)n1-c1ccccc1 | 4.45%
CC(C)OC(=O)CC1=NC(=O)CS1 | 0.398%
COc1cccc(NC(=O)CN(C)S(=O)(=O)c2ccc3c(c2)NC(=O)CS3)c1 | -2.47%
O=C(N/N=C\c1cc2c(cc1Cl)OCO2)c1ccc(Br)s1 | 14.6%
CCOC(=O)c1ccccc1NC(=O)c1c(F)c(F)c(F)c(F)c1F | 10.2%
CC(C)CCn1c(=O)c(C(=O)NCc2ccco2)c(O)c2ccccc21 | 8.73%
COc1ccc(CCNC(=O)CSc2nccc(=O)[nH]2)cc1OC | 30.5%
CN(C)CC(C)(C)CNC(=S)Nc1cc(S(=O)(=O)N2CCOCC2)ccc1Cl | -8.3%
CC1(C)CC(NS(=O)(=O)c2ccccc2)CC(C)(C)N1 | -22.7%
CCOC(=O)C(C)n1cnc2sc3c(c2c1=O)CCC3 (stereo not drawn) | 11.3%
CC(C)=CCN1CCN(Cc2c(C)nn(C)c2Cl)CC1CCO (stereo not drawn) | -1.4%
COc1ccc(NC(C)=O)cc1C | -5.61%
CCN(CC)c1ccc2cc(NC(=O)CCC(=O)O)c(=O)oc2c1 | 11.7%
Cc1ccc(NC(=O)CCNC(=O)c2ccco2)cc1F | 11.7%
S=c1[nH]nc(-c2ccco2)n1/N=C/c1ccccc1 | 9.95%
CCn1c(-c2cc(-c3cc(C)ccc3C)nc3ccccc23)n[nH]c1=S | -8.56%
O=[N+]([O-])c1cccnc1Sc1n[nH]c(-c2ccc(Cl)cc2)n1 | 3%
Nc1c2c3c(sc2nc(=O)n1N)CCCC3 | 15.3%

Compound | hERG current change (%, negative = inhibition) at 10uM
CC12CCC(C(=O)N3CCN(c4ncccn4)CC3)(c3nc4ccccc4nc31)C2(C)C (stereo not drawn) | -20.2%
CN1C(=O)CC(c2ccccc2)CC1=O | -18.9%
O=C(NCC(=O)N1CCOCC1)c1ccccc1 | 17%
O=C(NCCOCc1ccc(Cl)cc1)c1ncn[nH]1 | 6.91%
CNC(=S)N1CCN(CCN=Cc2c(O)n(-c3ccc(C)cc3)c(=S)[nH]c2=O)CC1 | 21.2%
O=[N+]([O-])c1ccc2nc(-c3ccccn3)[nH]c2c1 | 15%
Cc1ccccc1NC(=O)CCCSc1nc2ccccc2s1 | -4.5%
Cc1ccc(S(=O)(=O)Nc2ccc3nc(C)sc3c2)cc1 | 16.5%
N#CCSc1nnc(SCC#N)s1 | 6.54%
O=C(Cc1cccs1)Nc1ccccc1F | 10.1%
C/C(=N\OC(=O)c1ccc(C)cc1)c1sc(C)nc1C | -13.9%
COc1ccc(Oc2ncnc3c2oc2ccc(Br)cc23)cc1 | 16.8%
COc1ccc(OC)c(-c2cc(C(=O)NCc3ccc(Cl)cc3)no2)c1 | 31.6%
CCOc1ccc(S(=O)(=O)N2CCN(Cc3ccc4c(c3)OCO4)CC2)cc1Cl | -8.94%
CCCC(=O)N1CC(=O)Nc2ccc(C)cc2C1c1ccccc1 (stereo not drawn) | 0.122%
O=[N+]([O-])c1ccc(-c2c(-c3ccccc3)ncc3ccc(F)cc23)cc1 | -9.5%
Cc1ccc(-n2nc(C)c(NC(=O)COC(=O)c3ccccc3NCCO)c2C)cc1 | -3.72%
COc1ccc(Br)cc1CNCC1CCCO1 (stereo not drawn) | 5.7%
O=C(NCCc1nccs1)C1CCC(=O)N(CCc2ccc(Cl)cc2)C1 (stereo not drawn) | -31.6%
COc1cccc(C(=O)Nc2nc3ccc(S(C)(=O)=O)cc3s2)c1 | 8.27%
